From PubChem BioAssay AID1508624 (National Center for Advancing Translational Sciences (NCATS), 2021)
Hit rate of the full screen: of about 48,000 compounds, about 120 (0.25%) were called active. About 4% were inconclusive and are not listed. Calls follow the shape of the dose curve; as a rule, active = well fitted activation curve with a large enough effect; inconclusive = small, poorly fitted or top-dose-only effect, or another doubt; inactive = no such curve, though single readings can be large or run the other way. The list shows a part of the results.

Assay: Primary qHTS for Identification of Small Molecule Activators of Huntingtin-Antisense Promoter Activity; also: nearly all actives have a fitted effect of over 55% in size
Details: HEK293 HTT-AS promoter firefly luciferase reporter, 24 h; series mostly up to 57.5 µM; activity change, positive = activation: at the top concentration
Summary of the method: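 Firefly luciferase signal from promoter-reporter HEK293 cells was scaled between vehicle (0%) and zero RLU (-100%). Compounds were tested at final concentrations of up to 57.5 uM over 24 h at 37 degrees C. PTC124 at 50 uM final served as control inhibitor.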

Row | SMILES | activity change, positive = activation
1 | Cc1ccc(-n2c(C)nc3c(cnn3-c3ccccc3C)c2=O)cc1F | inactive: -9.72%
2 | Cc1cccc(Cn2cc(C(=O)Nc3ccc(F)c(C(F)(F)F)c3)ccc2=O)c1 | inactive: -27.4%
3 | O=C(NCc1cccc(F)c1)c1ccc(-n2cnc3cccnc32)cc1 | inactive: -9.16%
4 | O=C(NCCc1csc(-c2ccc(Cl)cc2)n1)c1cccs1 | inactive: -32.1%
5 | CCc1ccccc1NC(=O)Cn1c(-c2nonc2N)nc2ccccc21 | inactive: -5.82%
6 | COC(=O)c1c(NC(=O)CCCOc2ccc(C(C)(C)C)cc2)sc2c1CCC(C)C2 (centres undefined) | inactive: -1.36%
7 | CC1CCN(C(=O)CSc2nnc(-c3ccccc3Cl)o2)CC1 | inactive: 5.96%
8 | COc1ccc(NC(=O)/C(C#N)=C/c2ccc(OCc3cc(=O)n4nc(C)sc4n3)cc2)cc1 | inactive: -9.24%
9 | CCN(C(=O)Cn1nc(Cc2cccnc2)c2ccccc2c1=O)c1ccccc1F | inactive: -18.8%
10 | O=S(=O)(Nc1ccc2oc3c(c2c1)CCCC3)c1cc(Cl)ccc1Cl | inactive: -8%
11 | OCCN1C[C@H](O)[C@@H](O)[C@H](O)[C@@H]1CO | inactive: -5.31%
12 | Cc1cccc(NC(=O)C2CCN(c3nnc(-n4c(C)ccc4C)s3)CC2)c1C | inactive: 1.48%
13 | COc1ccc(-c2nnc(C3CCN(C(=O)c4ccccc4F)CC3)o2)cc1 | inactive: -88.3%
14 | Cc1ccc(S(=O)(=O)NCCc2cn3c(C)csc3n2)cc1 | inactive: -5.82%
15 | COc1ccc(NC(=O)CCNS(=O)(=O)c2cccc3nsnc23)cc1 | inactive: 0%
16 | COc1ccc(C2Sc3ccccc3NC3=C2C(=O)c2ccccc23)c(OC)c1OC (centres undefined) | inactive: -33.8%
17 | Cc1ccc2nc(-c3cc(NC(=O)c4ccc5c(c4)OCCO5)ccc3Cl)oc2c1 | inactive: 27%
18 | COc1ccc(-c2onc(C)c2C)cc1S(=O)(=O)N1c2ccccc2CC1C (centres undefined) | inactive: -40.9%
19 | Cc1ccc(S(=O)(=O)Cc2nc(-c3ccc(C(=O)NCc4ccccc4)cc3)oc2C)cc1 | inactive: -37.6%
20 | Cc1ccc(NC(=O)CSc2nc3ncccc3[nH]2)cc1F | inactive: 16.4%
21 | O=C(Nc1cccc(Br)c1)N1CCC(CN2CCCCC2)CC1 | inactive: -7.8%
22 | COc1ccc(OCCn2cc(C(=O)C3CCCCC3)c3ccccc32)cc1 | inactive: -21.8%
23 | O=C(c1ccc2c(c1)CCN2S(=O)(=O)c1ccccc1)N1CCN(c2ccc(F)cc2)CC1 | inactive: -10.4%
24 | COc1cccc(N2CCN(C(=O)c3cnn(C(C)(C)C)c3C3CCN(C(=O)OC(C)(C)C)CC3)CC2)c1 | inactive: -16.2%

Row | SMILES | activity change, positive = activation
25 | O=C(NCc1ccc(Cl)cc1)C(=O)Nc1ccc(Br)cc1 | inactive: -9.16%
26 | CCc1cccc(NC(=O)Cn2c(=O)n(Cc3ccccc3)c(=O)c3c2c2cc(OC)ccc2n3C)c1 | inactive: -12.1%
27 | O=C(CSc1nc2c([nH]c3ccccc32)c(=O)n1-c1ccc(F)cc1)N1CCCCC1 | inactive: -12.6%
28 | CCc1ccc(OCC(=O)N(Cc2ccc(Cl)cc2)C2CCS(=O)(=O)C2)cc1 (centres undefined) | inactive: -25.8%
29 | CCOC(=O)c1oc2c(c1C)-c1nn(Cc3ccc(Cl)cc3)cc1CC2 | inactive: -37.8%
30 | Cc1noc(C)c1S(=O)(=O)N1CCC(C(=O)N2CCN(c3ccccc3)CC2)CC1 | inactive: -22.8%
31 | COc1ccccc1NC(=O)Cn1nnc(C(=O)NCc2ccc3c(c2)OCO3)c1N | inactive: -29.6%
32 | CCC(C)NC(=O)Cn1c(=O)cc(-c2ccccc2)c2c(C)nn(C)c21 (centres undefined) | inactive: -17.7%
33 | Cn1c(NCCO)nc2c1c(=O)n(Cc1ccccc1Cl)c(=O)n2C | inactive: 10.5%
34 | Cc1ccc(N2CC(c3nc4ccccc4n3CCC3CCCCC3)CC2=O)cc1 (centres undefined) | inactive: -5.76%
35 | CCOc1ccc(C(CC(=O)O)N2Cc3ccccc3C2=O)cc1OC (centres undefined) | inactive: 1.5%
36 | COc1ccc(C2c3c(oc4ccc(F)cc4c3=O)C(=O)N2Cc2ccc3c(c2)OCO3)cc1 (centres undefined) | inactive: -11%
37 | N#C/C(=C\c1ccccc1)c1nc(-c2cc3cc(Br)ccc3oc2=O)cs1 | inactive: 5.62%
38 | Cc1cccc(N(C)C(=O)c2cc(S(=O)(=O)N3CCCC3)cn2C)c1 | inactive: -10.7%
39 | CCc1ccc(CNCc2c(C(=O)O)n(Cc3cccc(F)c3)c3cc(OC)ccc23)cc1 | inactive: -44.4%
40 | COC(=O)c1ccccc1NC(=O)NCCc1c(C)nn(C)c1C | inactive: -1.99%
41 | COc1cccc(N2CCN(S(=O)(=O)c3ccc4[nH]c5c(c4c3)CCCC5)CC2)c1 | inactive: -30.5%
42 | O=C(Nc1ccccc1Br)C1CCCN(S(=O)(=O)c2cccc3nsnc23)C1 (centres undefined) | inactive: -18%
43 | CCOC(=O)c1cccc(Nc2c3c(nc4ccccc24)CCC3)c1 | inactive: -39.1%
44 | O=C1CC(c2ccccc2)Cc2[nH]c(=O)c(C(=O)Nc3cccc(F)c3)cc21 (centres undefined) | inactive: -25.7%
45 | O=C(NCCS(=O)(=O)N1CCN(c2ccccc2)CC1)C(c1ccccc1)c1ccccc1 | inactive: -25.3%
46 | CCc1ccccc1N(C)C(=O)Cn1cnc2sc(C)c(S(=O)(=O)N3CCN(c4ncccn4)CC3)c2c1=O | inactive: -11.1%
47 | COc1ccc(NC(=O)Cn2c(=O)oc3cc(S(=O)(=O)N4CCC(C)CC4)ccc32)c(OC)c1 | inactive: -91.4%
48 | CCCS(=O)(=O)c1c(Nc2ccccc2C)sc(C(=O)c2ccccc2)c1N | inactive: -38.5%

Row | SMILES | activity change, positive = activation
49 | Cc1ccc(NS(=O)(=O)c2cc(Br)cc3c2N(C(=O)C2CC2)CC3)cc1C | inactive: -61.8%
50 | CCOc1ccccc1CNC(=O)CCn1ccc2cc(S(=O)(=O)N3CCC(C)CC3)ccc21 | inactive: -14.6%
51 | O=C(CCCN1C(=O)C(c2ccccc2)Oc2cccnc21)Nc1ccc(Br)cc1F (centres undefined) | inactive: -18.9%
52 | COc1ccc2c(CNCCc3cccs3)c(C(=O)O)n(Cc3ccccc3)c2c1 | inactive: -20.1%
53 | COc1ccc(-c2nc(SCC(=O)NCCc3ccc(OC)c(OC)c3)n[nH]2)cc1 | inactive: -12.6%
54 | CCOc1ccc(CCNC(=O)c2cc3c(=O)[nH]c4ccc(C)cc4c3s2)cc1OCC | inactive: -15.1%
55 | Cc1ccc(Cl)cc1NC(=O)C1CCC(CNS(=O)(=O)c2cccc3nsnc23)CC1 (centres undefined) | inactive: -3.62%
56 | CC(=O)N(Cc1cccnc1)c1nc2c(C)c(C)ccc2s1 | inactive: -8.93%
57 | O=Cc1ccc(O)c(O)c1O | inactive: -1.97%
58 | Cc1nnc(C(=O)NC(C)(C)c2nc(C(=O)NCc3ccc(F)cc3)c(O)c(=O)n2C)o1 | inactive
59 | COc1cccc(Oc2nc3c(c(=O)n(Cc4ccccc4F)c(=O)n3C)n2C)c1 | inactive: 29.2% [at 11.5 µM, percent change from vehicle, -100% = no light]
60 | COc1cc2[nH]c(=O)n(CCCCCC(=O)N3CCN(c4cccc(C(F)(F)F)c4)CC3)c(=O)c2cc1OC | inactive: -24.7%
61 | COc1cccc(N2CCN(C(=O)c3c(C)oc4ncnc(N5CCOCC5)c34)CC2)c1 | inactive: -6.57%
62 | Cc1c(C(=O)N(C)C)sc2c1c(=O)n(-c1ccc(Cl)c(Cl)c1)c(=O)n2CC(=O)Nc1cccc(C(F)(F)F)c1 | inactive: -1.82%
63 | CC(C)c1ccc(NC(=O)CN(C)S(=O)(=O)c2ccc3c(c2)c(=O)n(C)c(=O)n3C)cc1 | inactive: -23.2%
64 | CCn1c(=O)n(CC)c2cc(N3CCCCC3)c(NC(=O)Nc3ccccc3Cl)cc21 | inactive: -25.5%
65 | CCOC(=O)Cc1ccc(NC(=O)NCc2ccc3c(c2)CCN3C(=O)CC)cc1 | inactive: -20%
66 | O=C(CCS(=O)(=O)c1cc(Br)cc2c1N(C(=O)C1CC1)CC2)Nc1ccc(Br)cc1F | inactive: -11.1%
67 | COc1ccc(Cc2nc3ccccc3[nH]c2=O)cc1 | inactive: -21.2%
68 | C=Cc1ccc(Cn2c(C)c(CNCc3cccc(Br)c3)c(C(=O)O)c2C)cc1 | inactive: -12.4%
69 | C[C@@H]1C[C@H]2[C@@H]3C[C@H](F)C4=CC(=O)C=C[C@]4(C)[C@@]3(F)[C@@H](O)C[C@]2(C)[C@@]1(O)C(=O)CO | inactive: 2.3%
70 | Cc1cccc(Cn2c(CNS(=O)(=O)c3ccc4c(c3)CCCC4)nc3cccnc32)c1 | inactive: -25.3%
71 | CCOC(=O)c1c(S(=O)(=O)N2CCCC(C(=O)NCc3ccc(Cl)cc3)C2)c(C)n(C)c1C (centres undefined) | inactive: 0%
72 | COc1ccc(F)cc1S(=O)(=O)NCCc1csc2nc(-c3cccc(C)c3)nn12 | inactive: -12.8%

Row | SMILES | activity change, positive = activation
73 | O=C(c1ccccc1Cl)N1c2ncnn2C2(CCCCC2)[C@@H]2CCCC[C@@H]21 | inactive: -32.8%
74 | COC(=O)c1ccc(OCC2c3cc(OC)c(OC)cc3CCN2C(=O)COc2ccc(Cl)cc2)cc1 (centres undefined) | inactive: 0.789%
75 | Cc1ccc2oc3c(c(=O)c2c1)C(c1ccc(F)cc1)N(Cc1ccc2c(c1)OCO2)C3=O (centres undefined) | inactive: -5.69%
76 | CC(=O)c1cccc(NC(=O)c2sc(-n3nc(C)c(Cc4ccc5c(c4)OCO5)c3C)nc2C)c1 | inactive: -28.3%
77 | COc1ccccc1CCNC(=O)C(=O)NCC(c1ccc2c(c1)OCO2)N1CCOCC1 (centres undefined) | inactive: -20.2%
78 | CCOc1ccc(-c2cccc(NS(=O)(=O)c3c(C)cc(C)cc3C)c2)nn1 | inactive: -22.1%
79 | COc1ccccc1OCC(=O)NCC(c1ccc(Cl)cc1)N1CCCCC1 (centres undefined) | inactive: -13.8%
80 | CCN(C(=O)C1CCN(S(=O)(=O)c2ccc3c(c2)CCCN3C(C)=O)CC1)c1cccc(C)c1 | inactive: -21.3%
81 | COc1cccc(CNC(=O)C(=O)Nc2c3c(nn2-c2ccccc2)CSC3)c1 | inactive: -22.6%
82 | Cc1c(Cl)cccc1NC(=O)Cn1c(CCC(=O)O)ccc1-c1cccs1 | inactive: -66.9%
83 | CCOC(=O)c1c(NC(C)=O)c2c3c(sc2n1Cc1nc(-c2cccc(Cl)c2)oc1C)CCCC3 | inactive: -3.8%
84 | COc1ccc(OC)c(-c2nnc3n(Cc4ccc(C)cc4)c(=O)c4ccccc4n23)c1 | inactive: -15.2%
85 | Cc1c(-c2ccc(Br)cc2)c(=O)oc2ccc(OC(=O)N3CCOCC3)cc12 | inactive: -16%
86 | CCN(CC)C(=O)CSc1nc(-c2ccccc2F)nc2c1Cc1c(CO)cnc(C)c1O2 | inactive: -24.2%
87 | CC(C)(C)OC(=O)N1CCC(c2c(C(=O)N3CCCCC3)cnn2-c2ccc(Cl)cc2)CC1 | inactive: -11.7%
88 | COC(=O)c1ccccc1NC(=O)CSc1nc2ccsc2c(=O)n1CCC(C)C | inactive: -1.63%
89 | CCOc1cc(C(=O)NCCc2csc3nc(-c4ccc(C)cc4)nn23)cc(OCC)c1OCC | inactive: -15.7%
90 | COc1ccc(N2CC(NC(=O)COc3ccccc3)CC2=O)cc1OC (centres undefined) | inactive: -4.05%
91 | CCOC(=O)c1cnc2ccc(OC)cc2c1NCCc1ccccc1 | inactive: -76.6%
92 | Cn1c(=O)c2c(SCC(=O)NCc3ccco3)nc(-c3ccccc3)nc2n(C)c1=O | inactive: -1.86%
93 | CN(c1ncnc2onc(-c3cccc(Cl)c3)c12)C1CCCCC1 | inactive: -27.7%
94 | O=C(O)Cc1ccc(-c2ccccc2)cc1 | inactive: 2.02%
